About 120 (0.25%) of roughly 48,000 compounds were called active. Not shown: some 4% with an inconclusive outcome. Calls follow the shape of the dose curve; as a rule, active = well fitted activation curve with a large enough effect; inconclusive = small, poorly fitted or top-dose-only effect, or another doubt; inactive = no such curve, though single readings can be large or run the other way. The list shows a part of the results.
Experiment: Primary qHTS for Identification of Small Molecule Activators of Huntingtin-Antisense Promoter Activity; also: nearly all actives have a fitted effect of over 55% in size
Settings: HEK293 HTT-AS promoter firefly luciferase reporter (activity 0% = vehicle and -100% = no light), 24 h; series mostly up to 57.5 µM; activity change, positive = activation: at the top concentration
Method in brief: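 HEK293 cells carrying firefly luciferase reporters were seeded at 2,500 per well in Opti-MEM and cultured for 24 h. They were then treated with compounds at up to 57.5 uM final for 24 h at 37 degrees C before Dual-Glo luminescence readout.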

Activity change, positive = activation, inactive:
COc1ccccc1NC(=O)C(=O)NCC(c1ccc2c(c1)OCO2)N1CCOCC1 (stereo not given) -6.42%
COc1ccc(Cl)cc1NC(=O)Cc1ccc(NC(=O)N2CCCCc3ccccc32)cc1 -11.3%
CN1C(=O)CC[C@H]1c1cccnc1 -2.11%
CCOC(=O)c1ccccc1NC(=O)CSc1nc2cn(CC)nc2c(=O)n1Cc1ccc(Cl)cc1 -19.8%
Cc1ccc2c(c1)c1c(c(=O)n(-c3cccc(Cl)c3)c(=O)n1CC(=O)Nc1c(C)cccc1C)n2C -2.9%
Cc1ccc(CN2CCSc3ccc(C(=O)N4CCN(c5ccccc5)CC4)cc32)cc1 -6.93%
COc1ccc(N2CCN(C(=O)C3CCN(S(=O)(=O)c4cccs4)CC3)CC2)cc1 -23.1%
O=C(CC1N=C2c3ccccc3N=C(SCc3ccc(Cl)cc3)N2C1=O)NCc1cccs1 (stereo not given) -8.68%
CC(=O)O[C@]1(C(C)=O)CC[C@H]2[C@@H]3C=C(C)C4=CC(=O)CC[C@]4(C)[C@@H]3CC[C@@]21C -7.02%
O=c1c2cc3c(cc2n(Cc2ccc(Cl)cc2)c(=O)n1Cc1nc(-c2ccccc2)no1)OCO3 -16.9%
Cc1ccc(O)c(C(CCN(C(C)C)C(C)C)c2ccccc2)c1 (stereo not given) -3.41%
Cc1ccc(-n2c(Cc3ccccc3)nnc2SCc2nc(-c3cccs3)no2)cc1 -31.1%
CCc1ccccc1NC(=O)Nc1c[nH]c(=O)[nH]c1=O -2.56%
COc1cc(C(=O)Oc2c(Sc3ccccc3)c(C)nn2-c2ccccc2)cc(OC)c1OC -35.1%
Cc1ccc(/C=C/c2onc(C)c2S(=O)(=O)N2CCC(C(=O)Nc3ccc(C)c(N(C)C)c3)CC2)cc1 -7.45%
Cc1ccc(CNC(=O)CCCCCn2c(=O)[nH]c3ccccc3c2=O)cc1 -5.12%
Cc1nn(-c2ccccc2)c(OC(=O)C(C)C)c1Sc1ccc(Cl)cc1 -15.7%
CC1CCCN(CCCNC(=O)c2ccc3c(c2)N(Cc2ccccc2F)C(=O)c2ccccc2S3(=O)=O)C1 (stereo not given) -14%
Cc1ccccc1-c1nc(CN2CCC(C(=O)NCc3ccccc3Cl)CC2)c(C)o1 -0.519%
Cc1cnc(-c2cc(N3CCN(C(=O)CCS(C)(=O)=O)CC3)ncc2Cl)c(C)c1 -20.3%
CC(C)(C)c1ccc(NC(=O)C2CCCN(c3cnccn3)C2)cc1 (stereo not given) 19%
CCc1nnc(NC(=O)CSc2nccn2-c2ccc(OC)cc2)s1 -21.8%
CCn1c(C)c(C2N3CC4(C)CN2CC(C)(C3)C4=O)c2ccccc21 (stereo not given) 14.3%
C/C(=N\O)[C@@H](C)NCC(C)(C)CN[C@H](C)/C(C)=N/O -14%
CSc1ccc(CCNC(=O)c2cnc3c(C)cccn3c2=O)cc1 12.1%
CC(=O)c1cccc(-n2c(=O)c3c4c(sc3n(CC(=O)c3ccccc3)c2=O)CN(C(C)=O)CC4)c1 -12.7%
Cc1nc(C)c(-c2ccc(SCC(=O)Nc3ccc(Br)cc3)nn2)s1 -45.3%
Cc1ccc(C)c(CN2C(=O)c3ccccc3S(=O)(=O)c3ccc(C(=O)N(C)C4CCCCC4)cc32)c1 -33.3%
CC(=O)c1cc2c(cc1N/C(=N/S(=O)(=O)c1ccc(Cl)cc1)c1ccc(F)cc1)OCO2 -15.6%
CCc1ccc(NC(=O)c2ccc3c(O)c(S(=O)(=O)c4ccc(Cl)cc4)c(=O)[nH]c3c2)cc1 2.95%
Cc1cccc(OC(C)C(=O)Nc2ncn[nH]2)c1 (stereo not given) 14.6%
CCCCN(CC)CCCNC(=O)c1sc2nc(C)cc(C)c2c1-n1cccc1 -4.45%
COc1ccc(CN(C(=O)COc2ccccc2OC)C2CCS(=O)(=O)C2)cc1 (stereo not given) 18.3%
Cc1ccc(S(=O)(=O)N(CC(O)Cn2c3ccccc3c3ccccc32)c2cccc(C(N)=O)c2)cc1 (stereo not given) -50.9%
CCN(CC)c1cc(C)c2cc(NC(=O)c3cccc(OC)c3)ccc2n1 -13.5%
CCOC(=O)C1CCCN(S(=O)(=O)c2ccc(F)c(C(=O)Nc3ccc(F)c(F)c3)c2)C1 (stereo not given) -30.8%
Cc1cccc2nc(-c3ccco3)c(Nc3ccc4c(c3)OCO4)n12 -23.8%
Cc1cc(C)c(NC(=O)Cn2c(=O)n(CC(=O)NCc3ccccc3Cl)c(=O)c3sccc32)c(C)c1 10.8%
CC(=O)c1cc2c(cc1N/C(=N/S(=O)(=O)c1ccc(C)cc1)c1ccccc1)OCO2 -24.2%
COC(=O)c1ccc(NC(=O)CCS(=O)(=O)c2ccc(Br)cc2)cc1 -23.4%
CCOC(=O)c1c(NC(=O)/C=C/c2ccc(OCC)cc2)sc(C)c1C -6.76%
COC(=O)C(NC(=O)CC(C)C)(Nc1nc2c(s1)CCCC2)C(F)(F)F (stereo not given) -8.22%
CCCCOc1ccc(C(=O)NCCS(=O)(=O)N2CCN(c3ccc(F)cc3)CC2)cc1 -13.8%
CCOc1ccc(CNCc2c(C(=O)O)n(Cc3ccccc3F)c3cc(OC)ccc23)cc1 -15%
COc1ccc(-c2cc(C(=O)O)n(Cc3ccccc3)n2)cc1 -6.23%
COc1ccc(C(=O)NC2(C(F)(F)F)C(=O)NC(C)=C2C#N)cc1OC (stereo not given) -7.33%
CCC(=O)N1CCc2cc(Br)cc(S(=O)(=O)N3CCC(C(=O)Nc4ccc(OC)cc4)CC3)c21 -27.4%
COc1ccc(NC(=O)CSc2nc(-c3cccs3)cc(C(F)(F)F)n2)cc1OC -32.4%
O=C(CSc1nc2ccccc2nc1Cc1ccccc1)NCc1ccccc1Cl -7.26%
CCOC(=O)c1ccccc1O -5.98%
COc1ccc(CNC(=O)CSc2nc(-c3ccc(OC)cc3)cc(C(F)(F)F)n2)cc1 -14.5%
Cc1ccc(CCNC(=O)CCCn2nc(C)c3c(C)n(-c4ccccc4)nc3c2=O)cc1 0.653%
COc1cccc(-c2cc(C(=O)Nc3cc(Cl)ccc3O)on2)c1 23.1%
Cc1ccc(NC(=O)CN(C)S(=O)(=O)c2ccc3c(c2)n(C)c(=O)c(=O)n3C)cc1C -10.3%
Cc1ccc(-c2nc3c4ccccc4n(CC(=O)N4CCN(c5ccccc5F)CC4)c(=O)n3n2)cc1 -2.57%
Cc1ccccc1CNC(=O)c1cnc2sc(N3CCOCC3)nn2c1=O -5.31%
Cc1ccc(-n2nnnc2CNC(=O)C(C)(C)C)cc1C -0.797%
Cc1nc(SC(C)C(=O)Nc2ccccc2C)cc(-c2ccccc2)n1 (stereo not given) -19.5%
CCOC(=O)N[C@@H]1CC[C@@H]2[C@@H](C1)C[C@H]1C(=O)O[C@H](C)[C@H]1[C@@H]2C=Cc1ccc(-c2cccc(F)c2)cn1 -24.6%
CCOc1ccc(CCNC(=O)Cn2nc(C)n3c(cc4occc43)c2=O)cc1OCC -13%
CCn1c2ccccc2c2nnc(SCC(=O)O)nc21 -5.97%
COC(=O)C1=C(CS(=O)(=O)c2cc(Cl)ccc2OC)NC(=O)NC1c1ccccc1 (stereo not given) -29.9%
CCCCOc1ccc(C(=O)N2CCN(CCc3ccncc3)CC2)cc1 5.56%
COCCCNC(=O)c1oc2c(c1C)-c1nn(Cc3cccc(Cl)c3)cc1CC2 -41.2%
COc1ccccc1N1CCN(C(=O)c2nn(-c3ccc(C)cc3)c(=O)n(C)c2=O)CC1 -15.4%
CCOC(=O)c1ccc(Nc2c(-c3ccc(O)c(OC)c3)nc3nc[nH]n23)cc1 -15.8%
Cc1cc2nnc(SCC(=O)Nc3ccc(F)c(Cl)c3)n2c2ccccc12 -1.08%
COc1cc(NS(=O)(=O)c2ccc3c(c2)CCN3S(C)(=O)=O)cc(OC)c1 -12.1%
CCc1ccccc1NC(=O)Cn1c(=O)n(Cc2ccc3c(c2)OCO3)c(=O)c2ccc(C(=O)NC3CCCCC3)cc21 -11.4%
Cc1ccccc1-c1nc(CS(=O)(=O)CC(=O)NCC(C)c2ccccc2)c(C)o1 (stereo not given) -24.6%
O=C(COc1ccccc1Cl)NCC1(N2CCOCC2)CCCCC1 -44.9%
COc1cc(OC)c(NC(=O)C2CCCN(c3ncnc4c3nc3n4CCCCC3)C2)cc1Cl (stereo not given) -10.6%
CCc1ccc(OCC(=O)Nc2cc3oc4ccccc4c3cc2OC)cc1 -3.43%
Cc1c(NC(=O)c2cccnc2)c(=O)n(-c2ccccc2)n1C -1.54%
O=C(NCCc1ccccc1)c1cnc2sc(N3CCCC3)nn2c1=O -18%
CCCc1nn2c(=O)cc(COC(=O)c3cccc(NC(=O)COc4ccccc4C)c3)nc2s1 -8.39%
CC1CCC(NC(=O)c2ccc3c(c2)N(Cc2ccccc2)C(=O)c2ccccc2S3=O)CC1 (stereo not given) -0.0463%
COc1cc(-c2nnn(CC(=O)Nc3ccc(OC(F)(F)F)cc3)n2)cc(OC)c1OC -28.9%
CCOC(=O)c1c(C)[nH]c(CCC(=O)Nc2cc(C)ccc2OC)c1C -26.7%
CCOC(=O)c1cccc(NC(=O)CN2C(=O)c3ccccc3Sc3ncccc32)c1 -8.62%
Cc1ccc(C(=O)NCc2ccc(N(C)C)cc2)cc1NC(=O)c1nsc2ccccc12 -7.83%
O=C(CSCc1ccccc1Cl)N1CCN(c2ccc(F)cc2)CC1 3.39%
CN1C(C(=O)Nc2ccc(F)cc2F)=CC(c2ccco2)=NS1(=O)=O -7.28%
Cc1nnc(NCc2ccccc2)c2c1nnn2Cc1ccccc1Cl 4.79%
Cc1cccc(C)c1NC(=O)c1oc2ccc3c(c2c1C)C(=O)CC(C)(C)O3 -9.25%
Cc1cc2oc(C(=O)Nc3c(C(=O)Nc4ccccc4)oc4ccccc34)cc(=O)c2cc1C -2.07%
Cc1cccn2c(=O)c(C(=O)NCCCN3CCCCC3C)c(O)nc12 (stereo not given) -14.4%
O=C(Cn1ncc2c1-c1ccccc1OC2)N1CCN(c2ccccc2F)CC1 -24.8%
COc1ccccc1CNC(=O)C1CCCN(S(=O)(=O)c2ccc3c(c2)CCCN3C(C)=O)C1 (stereo not given) -3.78%
CCc1nn2c(=O)cc(COC(=O)c3cccc(NC(=O)c4ccccc4Cl)c3)nc2s1 14.7%
CS(=O)(=O)OCCCCOS(C)(=O)=O
CCc1ccc2c(c1)c(=O)c(S(=O)(=O)c1ccc(F)cc1)cn2CC(=O)Nc1ccc(C)cc1C -21.6%
Cc1ccc(CNC(=O)C2CCCN(S(=O)(=O)c3cccc4nsnc34)C2)cc1 (stereo not given) -13.9%
CCCn1ccc2c(OCC(=O)NCc3ccc(C)cc3)cccc2c1=O -5.08%
CCN(CCCNC(=O)c1cc2c(=O)n(C)c3ccccc3c2s1)Cc1ccccc1 0.534%

— PubChem BioAssay AID1508624 (National Center for Advancing Translational Sciences (NCATS), 2021)
